# From paper PMC10668032
# The other results are listed elsewhere or left out. At the low end of the ranking, values are background and their order means little.
# Target: SIX1-Q177R homeodomain (UniProt Q15475)
# Experiment: universal protein binding microarray
# Settings: Universal all-10-mer PBM (8x60K, AMADID 030236), 300 nM GST-tagged protein, Alexa Fluor 488 anti-GST; buffer, salt, pH and temperature not stated; high values mean tight binding; most listed sequences are background and not binding sites; double strand, one strand shown
row,Sequence,binding signal [E-score]
1,CCTAGGAC,0.0243
2,ACGATCGA,0.0502
3,AGGCTAGC,-0.109
4,GACACGTC,0.381
5,ACGCGACA,0.133
6,AGAGAAGA,-0.164
7,CATATGAA,-0.172
8,ACCCACGT,-0.0517
9,ACAAGAAC,-0.0371
10,ATTCTCTC,-0.0467
11,ACATATTA,-0.0745
12,CGAGTGAA,0.0202
13,ATGAGCAT,-0.131
14,GCTGCGTA,-0.123
15,CGCAGGCG,-0.0618
16,AGCAGGCG,-0.111
17,CTCCCAAG,0.00752
18,ATGTCTGA,-0.0182
19,CAACGTAA,-0.139
20,CGGGCCCC,0.0486
21,TGAGTCAA,-0.0259
22,ATATTGAA,-0.0529
23,GTAAGGCA,-0.0249
24,CAGGCAAC,-0.123
25,CCGGCAAG,-0.0574

row,Sequence,binding signal [E-score]
1,CGGACCCC,0.141
2,AGAGTACT,-0.014
3,CTTAGCCC,0.0313
4,CGTAAAAA,-0.217
5,CACGTGCA,0.218
6,CACCCGAG,0.297
7,ACAGACCT,-0.25
8,ATCCGCCA,-0.123
9,CACTGACG,0.179
10,GCTAAACA,-0.0293
11,CACGGAGA,0.126
12,AAGTACGA,-0.144
13,CGTTCAAG,-0.0844
14,CGGGGGGA,0.0657
15,ATAGCCCG,-0.156
16,ATCCTTAA,-0.098
17,CCGCCACC,-0.0188
18,ATTCGGAA,-0.0641
19,AGGAAGCC,-0.0946
20,AAGAGCGT,-0.133
21,CCTGTGCG,0.0785
22,ATCTGTGA,-0.0834
23,GAACTCAC,-0.222
24,CACAAGTC,-0.0537
25,CCACGAAA,-0.154

row,Sequence,binding signal [E-score]
1,CCTAAATA,-0.113
2,AATTGGAG,0.0907
3,AGGCCAAC,-0.115
4,CCTTAGCA,0.0503
5,TAACACCA,0.477
6,CGTATGAG,-0.227
7,GTCGGCGA,-0.0434
8,ACACGCAG,0.391
9,GGTCAGCA,0.101
10,GTAATGAA,-0.0471
11,AGCCTTCA,-0.219
12,CTGTCTGA,-0.175
13,CCCCTGCA,0.17
14,CACACGTC,0.221
15,ACGTTCCC,-0.178
16,CGCGGTTC,0.0535
17,CATGTGTA,0.259
18,GGGGCTGA,-0.146
19,TTACATAA,-0.175
20,ACCAAGTG,0.208
21,AACCTTCG,-0.117
22,GGGCGCCA,-0.0529
23,GGAAAGAC,-0.223
24,AAAACTGC,-0.125
25,CAGATATA,-0.0556

row,Sequence,binding signal [E-score]
1,ATATTTTC,0.00235
2,GGTTGGAC,-0.0405
3,CAGCGTTA,0.187
4,AATGAAAA,-0.185
5,TCGACTCA,0.115
6,AAAAACAT,-0.329
7,CTTGTACA,0.154
8,ACAGTGGA,-0.132
9,GATATTGC,-0.0693
10,ATATCGAC,0.101
11,CAGCACTA,-0.107
12,GGGAGACA,0.199
13,ATAGCTGA,-0.192
14,CTAAATAA,-0.0922
15,CGAAAAGA,0.135
16,GAGTACCA,0.0878
17,ACTTCTAG,-0.0924
18,AGTATGAG,0.0275
19,AGATTACA,0.23
20,TAAATTGA,-0.0417
21,AATGTCAA,0.0224
22,TGCGTCCA,-0.203
23,AAAGCGAT,-0.241
24,CGACAATC,0.0765
25,AAATTTTC,-0.239

row,Sequence,binding signal [E-score]
1,CTAATGAC,-0.0321
2,AAAGCGCT,-0.365
3,CGGCATTC,-0.207
4,TAACCTGA,-0.178
5,CAGCAGGG,-0.123
6,TCAATCAA,-0.294
7,AGATTAAT,-0.0266
8,CAGCCAAA,-0.256
9,ATCTGTGC,-0.169
10,ACTATCCG,0.101
11,AATTGCAG,-0.129
12,TGCGTAAA,-0.156
13,GGGTCAAA,0.171
14,ACCGAATG,0.173
15,ATTATGAA,-0.258
16,ACTAACCT,0.0431
17,ATAGCTAC,-0.0865
18,ACTTAACA,0.0969
19,ATCCATGC,-0.0906
20,CACCGACC,0.262
21,ACTTTCGA,-0.0602
22,GCACCGGA,0.162
23,GTTAATGA,-0.0906
24,TCCGTTAA,-0.0572
25,GGAGTGGA,0.093

row,Sequence,binding signal [E-score]
1,AGTCACCG,0.0642
2,AATCCTAG,-0.19
3,ATGCCCGA,-0.072
4,CTTAGAAG,0.00932
5,ATCTTTCA,0.163
6,CTGCCGGC,-0.173
7,CAGGGCCC,-0.108
8,ACTGGCAC,0.152
9,AATAAACA,0.218
10,GTTTGACA,0.193
11,AAGTCCCC,-0.276
12,CGTGCTAC,0.179
13,CGTGTAGC,0.416
14,GCGTTGCA,-0.104
15,AAGGCCGC,-0.238
16,ATCCCCCA,0.24
17,ATTTTGCA,-0.225
18,ACGGCCGC,-0.167
19,CTGGTATA,0.0285
20,ATCAAAGA,-0.0772
21,CAAGTCAA,-0.178
22,CCCGTCCC,0.105
23,GCACCGGC,0.137
24,GGTGGCCA,0.0254
25,ACGTGGTG,0.359

row,Sequence,binding signal [E-score]
1,ACCGTTTA,-0.0638
2,GAGTAATC,0.0545
3,AAGTTTGG,-0.257
4,CTCTACTC,0.108
5,TCCATAAA,-0.259
6,ATATACAC,0.409
7,CAACCGAG,-0.0615
8,AAAGCGTA,-0.142
9,ACCCGGAC,0.171
10,ACGTCCCA,-0.108
11,AGACACTA,0.343
12,CTCCAAGA,0.081
13,AGCTTTAT,-0.267
14,CCTGCCAA,-0.134
15,ACACAATA,0.123
16,AAGTTGGA,-0.00404
17,ATTCCAAG,-0.0565
18,CACAGCAG,0.0132
19,CCATGAAC,0.147
20,ATTAGTGC,-0.0942
21,CGGCGCCC,-0.0615
22,ACGTATAA,-0.0599
23,ATGCCGTA,-0.155
24,ACTCATCG,-0.0319
25,CAATTGCC,-0.146

row,Sequence,binding signal [E-score]
1,ACTCTTGG,0.139
2,AGGAGCGC,-0.204
3,AGCGGTAC,0.133
4,ACCTTCTC,0.118
5,AGGGTCTA,0.0215
6,GCATTACA,0.169
7,GCGTAAAA,-0.09
8,AATTGTGA,0.0761
9,AGTAAACT,-0.0978
10,AAGATTGA,-0.0996
11,ACTACGGC,-0.076
12,CGATTGCC,-0.0397
13,CTCATTAC,0.0347
14,TACTTCTA,-0.00954
15,AATGCAGT,-0.0926
16,GGCCGAAA,-0.152
17,CCCTGACC,0.127
18,ACGGATAT,-0.038
19,CTCTTGGA,0.126
20,AGTAGTAG,0.0228
21,TGCTCAAA,-0.056
22,ACGCTGTG,0.142
23,AATGGTCT,-0.0633
24,ACACCGGC,0.481
25,ACAAACGT,-0.154

row,Sequence,binding signal [E-score]
1,GGGTTGGA,0.0991
2,AGTTATTC,-0.0971
3,AGCATGCC,-0.308
4,ATCGGCCA,-0.183
5,TGGGACCA,0.0764
6,GCCACATA,-0.109
7,GTCCGGCA,-0.0338
8,TGGCACAA,-0.0686
9,GATGACGA,-0.244
10,ATCAGGAA,-0.24
11,ATGGTTTG,-0.0854
12,AATCGGAG,0.0218
13,ACACTTAT,0.349
14,CAAGGCTC,-0.0923
15,CCATAATA,-0.0307
16,GAGACTCA,-0.151
17,CGGCAGGC,-0.0997
18,ATGAGATG,-0.172
19,GAATTTTA,-0.00855
